Data published in PubChem BioAssay AID686979 (National Center for Advancing Translational Sciences (NCATS), 2013).
The whole screen tested about 420,000 compounds, of which about 50,000 (12%) were called active. The shares of active, inactive and inconclusive entries below differ from those in the screen. Calls follow the shape of the dose curve; as a rule, active = well fitted inhibition curve with a large enough effect; inconclusive = small, poorly fitted or top-dose-only effect; inactive = flat fitted curve, though single readings scatter. Potencies of inconclusive entries are left out as doubtful fits.
% is scaled to controls: 0 for no effect and ±100 for the full control effect; potency is read from the fitted curve at half-maximal effect; tags tell the direction and shape of the fitted curve.

Test: qHTS for Inhibitors of human tyrosyl-DNA phosphodiesterase 1 (TDP1): qHTS in cells in presence of CPT; also: nearly all actives have a fitted effect of over 55% in size
Conditions: chicken DT40 Tdp1-/-;hTDP1 cells + 20 nM CPT, ATP luminescence, 48 h; activity change, negative = growth inhibition: at 46.2 µM (top of the series)
Procedure, shortened: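 Chicken DT40 Tdp1-/- cells stably complemented with human TDP1 were seeded at 400 cells/well in medium containing 20 nM camptothecin, exposed to pin-transferred compounds, and grown at 37 °C for at least 48 hr. Viability was read as ATP luminescence.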
With `O=C(Nc1nc2ccccc2[nH]1)c1ccc(Cl)c(S(=O)(=O)N2CCCC2)c1` the Potency was active: 18.4 µM. In the case of `Cc1nc2ccc(S(=O)(=O)N(C)CC(=O)NCc3ccc(N(C)C)cc3)cc2s1`, the “activity change, negative = growth inhibition” value is reported as inactive: -27.6%. In the case of `CCc1n[nH]c(=S)n1/N=C/c1cc(Br)c(O)c(OC)c1`, the Potency is reported as inconclusive [inhibitor, single point]. In the case of `CCCCC1(C2CCCC2)NC(=O)NC1=O` (stereo unspecified), the “activity change, negative = growth inhibition” value is reported as inactive: -7.91%. With `COc1ccccc1C(=O)NCCn1ccc2ccccc21` the Potency was inconclusive [inhibitor, single point]. For `COc1ccc2c(c1)CC/C(=C/c1ccncc1)C2=O`, the Potency was active: 16.4 µM. With `Cc1c(C(=O)N2CCN(c3ccccn3)CC2)sc2ncnc(N3CCN(c4ccccc4)CC3)c12` the Potency was inconclusive [inhibitor, partial curve]. With `O=C(COc1cc(O)c2c(=O)cc(-c3ccccc3)oc2c1)c1cccc([N+](=O)[O-])c1` the Potency was inconclusive [inhibitor, partial curve]. With `CCn1cc(/C=C(\NC(=O)c2ccccc2OC)C(=O)NCCCN2CCOCC2)c2ccccc21` the Potency was inconclusive [inhibitor, partial curve, poor fit]. With `C=CCNC(=O)c1c(N)n(-c2cccc(S(N)(=O)=O)c2)c2nc3ccccc3nc12` the Potency was active: 14.6 µM. With `CCOc1ccc(N(C)S(=O)(=O)c2ccc(C)c(C(=O)NCc3ccccc3OC)c2)cc1` the Potency was inconclusive [inhibitor, single point]. For `CCOC(=O)C1CCN(C2=NC(=O)/C(=C/c3ccccc3OC)S2)CC1`, the Potency was inconclusive [inhibitor, partial curve]. With `CC1CCCCN1CCNC(=O)c1ccc2c(c1)N(Cc1cccc(Cl)c1)C(=O)c1ccccc1S2(=O)=O` (stereo unspecified) the Potency was inconclusive [inhibitor, single point]. For `CCOC(=O)C(NC(=O)c1cccc(Cl)c1)(OCc1ccc(F)cc1)C(F)(F)F` (stereo unspecified), the Potency was inconclusive [inhibitor, single point]. In the case of `O=C(NC1CCCCC1)[C@@H]1CC=C[C@@H]2CCN(C3CCCCC3)C(=O)[C@@H]21`, the Potency is reported as inconclusive [inhibitor, single point]. With `O=C(NCCc1nc(-c2ccccc2Cl)no1)C1CCCCC1` the “activity change, negative = growth inhibition” value was inactive: -12.4%. In the case of `CCOCCn1c(SCc2ccc(F)cc2)nc2c1c(=O)[nH]c(=O)n2C`, the Potency is reported as inconclusive [inhibitor, single point]. For `CCc1ccc(C2=NN(C(C)=O)C(c3ccco3)C2)cc1` (stereo unspecified), the Potency was inconclusive [inhibitor, partial curve]. In the case of `CCc1ccc(N(C(=O)c2csnn2)C(C(=O)NC2CCCCC2)c2cccnc2)cc1` (stereo unspecified), the “activity change, negative = growth inhibition” value is reported as inactive: -12.1%. With `COc1ccc(CNC(=O)c2ccc(NC(=O)N3CCSc4ccccc43)cc2)cc1` the Potency was inconclusive [inhibitor, single point]. In the case of `O=C(COC(=O)COc1ccc(Cl)cc1Br)NC1CCCC1`, the “activity change, negative = growth inhibition” value is reported as inactive: -18.3%. In the case of `COc1ncnc2c1ncn2CCCN1CCN(Cc2cccc3ccccc23)CC1`, the Potency is reported as inconclusive [inhibitor, single point]. For `COc1ccc(-c2cc(NC=O)c3ncc(-c4ccc(OC)c(OC)c4)n3c2)cc1OC`, the Potency was active: 5.17 µM. With `CSc1nn(Cc2cccc(C)c2)c(N)c1S(=O)(=O)c1ccccc1` the Potency was inconclusive [inhibitor, single point]. With `O=C(Nc1ccc(S(=O)(=O)N2CCOCC2)cc1)C1CCN(S(=O)(=O)c2ccc(Cl)cc2)CC1` the Potency was active: 16.4 µM. With `COc1ccc(-c2cc3ccc(F)cc3cn2)cc1` the Potency was inconclusive [inhibitor, single point]. With `S=C(NCC1CCCO1)N1CCN(Cc2ccccc2Cl)CC1` (stereo unspecified) the Potency was inconclusive [inhibitor, single point]. In the case of `CCOc1ccc(CSC(=N)N)cc1`, the Potency is reported as active: 25.9 µM. In the case of `O=[N+]([O-])c1cc(S(=O)(=O)N2CCOCC2)ccc1OCc1cccc(Cl)c1`, the Potency is reported as inconclusive [inhibitor, single point]. In the case of `Cc1onc(-c2ccccc2)c1-c1csc(COc2ccccc2)n1`, the Potency is reported as inconclusive [inhibitor, single point]. With `OC(c1ccc(F)c(F)c1)c1ncc(-c2ccc(Cl)cc2)[nH]1` (stereo unspecified) the Potency was inconclusive [inhibitor, single point]. For `CCOC(=O)N1CCC(NC(=O)C2CCN(C(=O)c3cc4oc(C)cc4n3Cc3c(F)cccc3Cl)CC2)CC1`, the Potency was inconclusive [inhibitor, single point]. With `O=C(NNC(=O)c1cccnc1SCc1cccc([N+](=O)[O-])c1)c1ccc(F)cc1` the Potency was active: 23.1 µM. With `Cc1cc(-c2ccc(F)cc2)n2ncc(-c3ccccc3)c2n1` the activity change, negative = growth inhibition was inconclusive: -33.3% [inhibitor]. For `O=C(CNS(=O)(=O)c1ccc(Br)cc1)N1CCN(c2ccc(F)cc2)CC1`, the Potency was inconclusive [inhibitor, single point]. In the case of `Cc1nc(CCNC(=O)CC2C(=O)NCCN2Cc2ccoc2)nc2c1CCCC2` (stereo unspecified), the “activity change, negative = growth inhibition” value is reported as inactive: 2.21%. In the case of `O=C(CC1C(=O)NCCN1Cc1ccoc1)NCCCn1ncc2ccccc21` (stereo unspecified), the “activity change, negative = growth inhibition” value is reported as inactive: 4.8%. In the case of `CCCCCCC(=O)Nc1nc(C)c(-c2csc(Nc3cccc(OC)c3)n2)s1`, the Potency is reported as active: 20.6 µM. For `CC(=O)c1ccc(Nc2nc(C(N)COCc3ccccc3)cs2)cc1` (stereo unspecified), the Potency was active: 23.1 µM. With `COc1cc(C(=O)N=c2sc3ccccc3n2C)cc(OC)c1OC` the Potency was active: 7.31 µM. With `Cc1ccccc1Cn1c2ccccc2c2cnn(CC(=O)NC3CCC(C)CC3)c(=O)c21` (stereo unspecified) the Potency was active: 18.4 µM. In the case of `COc1ccc(C)cc1NC(=O)CSc1nc(SC)ns1`, the Potency is reported as inconclusive [inhibitor, single point]. With `Cc1nc(SCC(=O)c2cccc([N+](=O)[O-])c2)n[nH]1` the Potency was inconclusive [inhibitor, single point]. In the case of `COc1ccc2nc(SC(C(=O)c3ccccc3)c3ccccc3)nc(C)c2c1` (stereo unspecified), the Potency is reported as active: 23.1 µM. In the case of `Cn1cc(S(=O)(=O)Oc2ccccc2)c(=O)n(C)c1=O`, the “activity change, negative = growth inhibition” value is reported as inactive: 5.95%. With `CCC1CCCCN1C(=O)COc1c(Br)cc(Br)c2cccnc12` (stereo unspecified) the Potency was inconclusive [inhibitor, full curve]. For `Cc1ccc(C)c(-c2csc(NC(=O)c3cnccn3)n2)c1`, the Potency was inconclusive [inhibitor, single point]. With `CCCCCCCCCCCCCCCC(=O)NCCc1c[nH]c2ccccc12` the “activity change, negative = growth inhibition” value was inactive: -3.42%. For `Cc1ccc2nc(-c3ccc(NC(=O)c4ccc(S(C)(=O)=O)cc4)cc3)sc2c1`, the Potency was active: 20.6 µM. In the case of `CC(C)NC(=S)Nc1ccc2cn[nH]c2c1`, the “activity change, negative = growth inhibition” value is reported as inactive: 0.0615%. For `Cc1ccc(-c2csc(Nc3ccc(C(=O)O)cc3)[n+]2Cc2ccccc2)cc1`, the “activity change, negative = growth inhibition” value was inactive: -23.8%. In the case of `CCn1c(=N)n(CC(=O)c2ccc(Br)s2)c2ccccc21`, the Potency is reported as inconclusive [inhibitor, single point]. With `CC(C)c1ccc2oc(-c3ccc(NC(=O)c4cccc(Br)c4)cc3)nc2c1` the Potency was inconclusive [inhibitor, single point]. For `N#Cc1cccnc1N1CCN(C(c2ccnc3ccccc23)c2nnnn2-c2ccc3c(c2)OCCO3)CC1` (stereo unspecified), the Potency was inconclusive [inhibitor, single point]. In the case of `Cc1ccc(NC(=O)CC(C)S(=O)(=O)c2ccc3c(c2)NC(=O)CO3)c(Cl)c1` (stereo unspecified), the Potency is reported as inconclusive [inhibitor, single point]. For `Cc1oc(CN2CCOCC2)cc1C(=O)O`, the “activity change, negative = growth inhibition” value was inactive: 21%. For `CCCCOc1ccc(S(=O)(=O)NNC(=O)c2cc3ccccc3o2)cc1`, the Potency was inconclusive [inhibitor, single point]. In the case of `Cn1cc(C(=O)OCC2CCN(CCNS(C)(=O)=O)CC2)c2ccccc21`, the Potency is reported as inconclusive [inhibitor, single point]. For `CN(C)c1nc(=Nc2cccc(Cl)c2)ss1`, the Potency was active: 0.206 µM. With `O=C1c2ccccc2-c2c1c1ccccc1c(=O)n2CCO` the Potency was active: 6.51 µM. For `CC1CCN(CCOCCSc2ccc(Cl)cc2)CC1`, the Potency was inconclusive [inhibitor, single point]. In the case of `COc1ccc(OC)c(NC(=O)C2CCN(S(=O)(=O)c3ccc4c(c3)OCCO4)CC2)c1`, the Potency is reported as inconclusive [inhibitor, single point]. For `CC(NC(=O)Cc1cccs1)C(c1cccs1)N1CCN(c2ccccc2)CC1` (stereo unspecified), the Potency was inconclusive [inhibitor, single point]. For `O=C(Nc1cccnc1)c1ccccc1F`, the “activity change, negative = growth inhibition” value was inactive: -3.21%. In the case of `N/C(=N\OC(=O)c1ccc(F)cc1)c1cccc([N+](=O)[O-])c1`, the “activity change, negative = growth inhibition” value is reported as inactive: -10.8%. In the case of `Cc1cc(C)cc(-n2c(N)c(C(=O)Nc3c(C)n(C)n(-c4ccccc4)c3=O)c3nc4ccccc4nc32)c1`, the Potency is reported as active: 7.31 µM. For `Cc1oc(-c2cc(F)ccc2F)nc1CN(C)Cc1ccc2nccnc2c1`, the Potency was inconclusive [inhibitor, partial curve]. In the case of `Cc1ccc2nc(-c3cccc(S(=O)(=O)N4CC(C)OC(C)C4)c3)cn2c1` (stereo unspecified), the Potency is reported as inconclusive [inhibitor, single point]. With `COc1ccc2nc3n(c(=O)c2c1)-c1cc2ccccc2cc1C(=O)NC3Cc1ccccc1` (stereo unspecified) the Potency was inconclusive [inhibitor, single point]. For `O=C(NCCC1=CCCCC1)c1ccc2c(=O)n3nc(Nc4ccccc4)sc3nc2c1`, the Potency was active: 2.31 µM. With `CCN(CC)S(=O)(=O)c1cc(NC(=O)COC(=O)c2c(C)noc2C)ccc1C` the Potency was inconclusive [inhibitor, partial curve, poor fit].
